No constants are given. Whether binding was seen depends on the method and setting. Some binding calls cover weakened binding; strength is not graded here.
Molecular target: Rab2A(Q65L)-BirA*-HA-MAO (human) (UniProt P61019)
Experiment: relocation to mitochondria (confocal microscopy); tagged protein co-expressed in cells (MEFs, HeLa) with the mitochondrial GTPase-BirA* chimera; relocation of the tagged protein to mitochondria

Sequences of proteins named here, by UniProt entry; tags and fusion partners are left off. A change or cut given only in a name is not applied to a line headed by its entry.
UniProt P61019: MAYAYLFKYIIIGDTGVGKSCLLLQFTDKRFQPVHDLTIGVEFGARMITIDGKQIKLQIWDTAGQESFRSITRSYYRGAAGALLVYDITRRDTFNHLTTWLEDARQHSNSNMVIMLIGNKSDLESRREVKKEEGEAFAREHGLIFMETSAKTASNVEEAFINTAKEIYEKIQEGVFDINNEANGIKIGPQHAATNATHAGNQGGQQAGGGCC
UniProt Q5TH69: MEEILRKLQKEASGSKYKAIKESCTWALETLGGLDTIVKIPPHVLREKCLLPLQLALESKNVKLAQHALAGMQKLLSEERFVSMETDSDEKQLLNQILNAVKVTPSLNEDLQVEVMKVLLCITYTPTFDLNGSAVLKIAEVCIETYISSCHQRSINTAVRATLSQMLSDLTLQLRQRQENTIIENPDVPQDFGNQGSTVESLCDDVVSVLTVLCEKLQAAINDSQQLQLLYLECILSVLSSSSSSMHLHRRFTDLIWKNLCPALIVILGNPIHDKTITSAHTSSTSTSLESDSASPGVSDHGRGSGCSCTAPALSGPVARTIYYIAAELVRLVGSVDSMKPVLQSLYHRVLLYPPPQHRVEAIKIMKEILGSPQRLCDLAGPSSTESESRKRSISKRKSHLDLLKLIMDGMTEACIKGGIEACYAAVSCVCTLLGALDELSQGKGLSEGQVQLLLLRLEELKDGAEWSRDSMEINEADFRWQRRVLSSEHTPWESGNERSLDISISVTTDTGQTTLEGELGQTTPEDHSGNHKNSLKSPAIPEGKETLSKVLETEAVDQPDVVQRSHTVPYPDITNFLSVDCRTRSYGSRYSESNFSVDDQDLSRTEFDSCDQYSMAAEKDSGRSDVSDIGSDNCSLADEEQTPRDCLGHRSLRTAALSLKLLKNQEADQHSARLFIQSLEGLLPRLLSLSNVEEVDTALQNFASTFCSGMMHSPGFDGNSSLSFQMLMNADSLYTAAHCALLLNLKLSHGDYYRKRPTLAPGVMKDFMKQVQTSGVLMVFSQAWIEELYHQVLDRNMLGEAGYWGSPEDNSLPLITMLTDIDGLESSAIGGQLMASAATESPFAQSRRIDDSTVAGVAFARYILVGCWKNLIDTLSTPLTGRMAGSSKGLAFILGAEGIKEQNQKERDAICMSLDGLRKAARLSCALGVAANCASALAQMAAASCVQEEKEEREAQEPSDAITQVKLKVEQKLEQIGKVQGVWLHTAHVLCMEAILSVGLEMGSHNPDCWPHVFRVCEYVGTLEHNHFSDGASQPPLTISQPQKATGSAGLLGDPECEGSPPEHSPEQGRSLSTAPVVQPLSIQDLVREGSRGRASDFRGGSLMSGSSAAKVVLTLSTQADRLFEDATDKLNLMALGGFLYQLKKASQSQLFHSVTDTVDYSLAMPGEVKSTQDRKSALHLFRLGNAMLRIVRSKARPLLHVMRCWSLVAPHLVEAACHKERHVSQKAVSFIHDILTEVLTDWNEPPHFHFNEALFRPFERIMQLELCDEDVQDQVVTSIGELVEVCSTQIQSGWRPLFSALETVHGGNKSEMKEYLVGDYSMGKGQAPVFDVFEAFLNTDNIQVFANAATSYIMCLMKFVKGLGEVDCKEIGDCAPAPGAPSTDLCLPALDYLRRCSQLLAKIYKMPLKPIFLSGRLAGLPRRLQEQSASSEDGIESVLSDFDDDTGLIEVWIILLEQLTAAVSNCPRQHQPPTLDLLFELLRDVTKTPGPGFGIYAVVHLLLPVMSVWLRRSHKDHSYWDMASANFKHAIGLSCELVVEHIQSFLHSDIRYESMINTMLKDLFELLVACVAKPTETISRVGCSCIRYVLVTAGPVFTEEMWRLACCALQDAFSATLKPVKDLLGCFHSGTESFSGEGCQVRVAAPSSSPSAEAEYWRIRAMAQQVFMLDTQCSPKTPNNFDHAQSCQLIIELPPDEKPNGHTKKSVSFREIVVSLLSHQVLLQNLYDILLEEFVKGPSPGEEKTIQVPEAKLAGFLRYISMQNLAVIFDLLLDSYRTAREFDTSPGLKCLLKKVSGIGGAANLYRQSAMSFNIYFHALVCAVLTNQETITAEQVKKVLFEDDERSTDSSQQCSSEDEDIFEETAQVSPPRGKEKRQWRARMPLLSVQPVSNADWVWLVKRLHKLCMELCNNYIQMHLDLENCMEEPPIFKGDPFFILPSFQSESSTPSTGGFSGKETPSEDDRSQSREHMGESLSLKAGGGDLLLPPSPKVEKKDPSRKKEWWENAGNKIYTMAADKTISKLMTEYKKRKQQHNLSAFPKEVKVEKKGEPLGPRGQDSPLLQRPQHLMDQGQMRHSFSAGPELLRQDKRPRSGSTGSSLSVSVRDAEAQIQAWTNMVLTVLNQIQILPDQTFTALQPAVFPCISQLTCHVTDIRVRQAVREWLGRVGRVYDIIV

binding: binds
Substance: GFP-ARFGEF3 (from UniProt Q5TH69 1-2177)
